Measured values reported in the RNAGym collection of RNA variant scans (doi:10.7554/elife.90254).
Read counts are not given, so values of variants with three or more changes are uncertain.

B1: OR4K15 (parent)
chain: GUUAACGGUCAUAGGCCAUGGAAACUAGGAGCACCAUUUCGCUGCCAGUGAAGAAAUGAACAAAGAAAAUCUGGGCCAGGCAGGCAUCAAAAGAAAUAGUCUUGCGCUCAACCAGAAAGUCUGUAAUCAUUUUAAGGGUA

Variants of: B1
Test: self-cleavage, relative activity (ratio to wild type); higher = more cleavage; in vitro, sequencing; the parent is a self-cleaving ribozyme

| Variant | self-cleavage |
| --- | --- |
| A51G A91G U108C | 0.02 |
| A52G A92G U100A | 0.53 |
| U26C A27G A30U | 0.94 |
| A18U A23G U103C A134U A140G | 0.6 |
| U2C A11C C25G G80C A126G U127C | 0.03 |
| A18U U72A C77U A117U | 0.26 |
| U43C A68G U100C U127C | 2.08 |
| U43C A52G U122C | 1.2 |
| A78U A98G G115U | 0.02 |
| A23G U43A U49G U72A | 0.08 |
| G7A A118G U131C | 0.7 |
| A23G A30U A66G C76U A90G | 0.17 |
| A54G A69G U130C | 1.78 |
| A5G U43C A89U A116G A129G | 0.74 |
| A23G A36U A56G | 1.65 |
| A78G A91G U120C | 0.06 |
| C16U G29U A117G G138A | 1.4 |
| A59U A60G A134G | 1.3 |
| U2C A63G A91G A135G | 1.39 |
| A18G A30G A78U A94G A126G | 0.4 |
| A110U A111G U122A G138A | 0.01 |
| A68C A94G A135G | 2.61 |
| C32U C45G A110G A116G | 0.01 |
| A23U A47G A63G A117G | 0.83 |

| Variant | self-cleavage |
| --- | --- |
| A27G A67G U72C A135G | 0.3 |
| A86G A118G A140G | 0.47 |
| U103C A118G A129G U132A | 0.05 |
| U70C A89U A114G | 0.2 |
| A60G A68G U100C | 1.59 |
| A63G A69U A90G U102C A125G U130C | 1.25 |
| A23G U37C A56G | 1.18 |
| A36G A55G A59G U97C U131C | 0.49 |
| C71U U87A A117G A118C | 0.03 |
| A47G G83U U120C U122C | 0.16 |
| A5G C40U C61U A96G U127C U130C | 0.72 |
| U19A A36U A66G | 1.74 |
| A11G A78G A90G U132C | 0.29 |
| U3C A27G A82G C121U U127A | 1.34 |
| C6U A82U U122C | 0.1 |
| A22G U39C U127A | 2.48 |
| G7A A18U A24U | 0.82 |
| A13G U43C C113U | 0.4 |
| A62G A63U U108A | 0.01 |
| A116G U130C U133C | 0.34 |
| A64G C77U A94G U124C A126U U133C | 1 |
| U102C U108C U131C | 0.01 |
| U38A C105U G137A | 0.24 |
| A11G U87C U108A A110U | 0.01 |

| Variant | self-cleavage |
| --- | --- |
| A51G A62G U72C A125G | 0.15 |
| U3C A69G A90G | 0.99 |
| C6A A64C A92G A114U | 0.01 |
| U12C U122A G137U | 1.1 |
| A30G U38A A55G A56G | 0.88 |
| A30G A60G A91U | 1.86 |
| U9C U37C A64G U103C U132C | 1.12 |
| A60G A67G A86G A117G A118G | 1.94 |
| U3C A55G U72A | 0.05 |
| A62G A78G A114G | 0.06 |
| A11G A62U A114G | 1.06 |
| A23G G53A U130C U132A | 2 |
| A24G U43C A69U U70C | 1.01 |
| A56G C81U U102C | 0.61 |
| A91U U97C A111G U120C | 0 |
| C17U A22G U37C U87C A110G A126G U131C | 0.02 |
| A23G A69G U120A | 1.3 |
| A18U A56G A78G | 0.24 |
| A33U A78G A82G U124C | 0.11 |
| U12C A27U U38C A51U | 1.81 |
| U19C A33G A47U G75A U87C A91C | 0.12 |
| U39C A67U A98G U102C U130C | 2.8 |
| C109A A114C U127C | 0.01 |
| A51G U57C A118G | 0.53 |

| Variant | self-cleavage |
| --- | --- |
| A30G A69G A90G A95G | 2.53 |
| U3A G31A G80A A114G | 0.03 |
| A59G U103C C113A | 0.09 |
| U9C C46U A55G A67G U108C | 0.06 |
| U38C A64G A110G U127C | 0.1 |
| A64G U124C A126G | 0.45 |
| U72G A111G A117G U139A | 0.02 |
| U43A A78U A92G U100C | 1.82 |
| A66G U72A A118G U120C U122C | 0.01 |
| A68G A86C A135G | 0.76 |
| A24U A56G U103C | 1.43 |
| A62G A94G A129G | 1.69 |
| G41A A54G U100C | 2.7 |
| A68G A78G U100C | 0.08 |
| U9C A23G U39A A67G A78U | 0.48 |
| A52G A67G A91G U139G | 1.95 |
| A23G A56G U72A A116U U120C U131C G137U | 0.01 |
| A18G A55G A63G A89G | 1.22 |
| A11G U39C U103C | 0.61 |
| A33G A67G A69U A92G A96G | 1 |
| C45U A59U U120C | 0.65 |
| A95G U108C U132C | 0.02 |
| A11G U12C U38C U102C | 0.55 |
| U38C U87C U139C | 0.84 |

| Variant | self-cleavage |
| --- | --- |
| U19G U43A A90G | 1.53 |
| A5U A22G A30G | 0.43 |
| U57C A63G A64U A69G U139A | 0.96 |
| A36G U57A A63G U70C A90G | 1.17 |
| A52G A59G A89G | 1.25 |
| A22G A94G A116G | 0.9 |
| U87A A110G A118G | 0.19 |
| A5G A68G U100A U108C U122G | 0.04 |
| A51G A92G U127C | 0.48 |
| A60G A126G U131C | 0.26 |
| U57C A94G U97C U100C | 2.12 |
| A24C U43A A67G | 1.55 |
| A13G A64G G84C A135G | 0.22 |
| A60G U108A U131C | 0 |
| A27G U38C A51U A54G A67G U108C | 0.01 |
| A30G U100C U122A A126G | 1.03 |
| A60G A94G A111C U132C | 0.01 |
| A94G A96U A126U U131C | 0.62 |
| C35U A59G A90G | 0.46 |
| G29A A96G U130G | 1.51 |
| A51G G58A A68U A94G G123A | 0.65 |
| A56G A64G U108C A110G | 0 |
| U57C A94G U120C | 0.45 |
| U12C A51G A64G A86G A95G A118G | 0.57 |

| Variant | self-cleavage |
| --- | --- |
| A22G A33U A91G | 0.39 |
| A66C A86G A111G | 0.03 |
| U2C G44A A67G A135G | 0.97 |
| A4G A23G U38C A51G A68G U132C | 0.5 |
| U37C U38C U43C A47G | 0.66 |
| U12C A23G A78U | 0.53 |
| A18U A36U A94G | 1.01 |
| C32U A56G A140G | 1.21 |
| U9C U49C A51G | 1.3 |
| A5G G7A A47G A51G A54G | 1.16 |
| A23U U87C A92G A126G | 1.44 |
| U2C A5U A55G A56G | 0.61 |
| A18G A47G A52G C76A A98G U131C | 0.08 |
| C6U U72C U108A | 0.04 |
| A47U A62G G74U U122G | 0.24 |
| U2A A56G A69G C76U | 0.15 |
| G74A A89G A92G | 0.17 |
| A23G A33C A62U U70A | 0.88 |
| U43C A69G C76A U132C | 0.09 |
| A13G U72A U130C | 0 |
| A59G C81U A118G A135U | 0.11 |
| A11G A36U A67G A89G | 0.91 |
| A5C U12C U37C A126U U127C U130C | 0.42 |
| U57C U72A A126G | 0.15 |

| Variant | self-cleavage |
| --- | --- |
| A69G A82G U100C | 0.73 |
| U9C A23G A51U A69G A82G C121A A125G U127C | 0.07 |
| A33U A95G C107G A117G | 0.02 |
| G50A A66G U131C | 0.5 |
| A11G A111G A117C U122C U131C | 0.2 |
| U9C A33G A51G A110G U139A | 0.13 |
| U37C U97C U100C | 2.51 |
| G1C U37C A55G | 0.52 |
| U12C U39C A52U A68G A82G A140G | 0.56 |
| C6U A89U A134G | 1.07 |
| U39A A66G U130C | 1.12 |
| G15A A52G A117G | 1.77 |
| U12C U19A A30G U43C U49C | 1.16 |
| U26C U39A A54G A118G | 1.43 |
| A56G A62G U102C U103A | 0.19 |
| A22G A54G A134G | 1.55 |
| A68G A82U U102C A111U | 0.02 |
| A5G A54G U72A | 0.39 |
| A62G A78G A118G | 0.13 |
| G20A A30C U43A | 0.67 |
| U19C A56C U72A | 0.13 |
| A33G U43A A82U U132C | 0.06 |
| A47G U49A A117G U122A A125G U130A | 0.12 |
